# Screen size: about 390,000 compounds; about 4,000 (1%) were called active. The inconclusive results got no clear call from the source; some entries with a clear call stand among them for comparison. Calls follow the shape of the dose curve; as a rule, active = well fitted inhibition curve with a large enough effect; inconclusive = small, poorly fitted or top-dose-only effect; inactive = no such curve, though single readings can be large or run the other way. Potencies beside an inconclusive call are fits to weak or partial responses and may not hold up.
# Target: Thioredoxin reductase 1, cytoplasmic (Rattus norvegicus) (UniProt O89049)
# Assay: qHTS Assay for Inhibitors of Mammalian Selenoprotein Thioredoxin Reductase 1 (TrxR1): qHTS; also: nearly all actives have a fitted effect of over 65% in size
# Settings: recombinant rTrxR1, NADPH fluorescence consumption, selenite substrate; series mostly up to 114 µM
# Outline: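 Rat TrxR1 (90 nM in the dispensed reagent) was pre-reduced with 400 uM NADPH for 5 min at room temperature, then incubated with compound for 15 min. After 400 uM selenite was added, NADPH fluorescence (Ex 340/Em 450 nm) was followed for 8 min.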
# Potency is read from the fitted curve at half-maximal effect; tags tell the direction and shape of the fitted curve.
# Sequence of UniProt O89049 (O89049 whole entry, looked up): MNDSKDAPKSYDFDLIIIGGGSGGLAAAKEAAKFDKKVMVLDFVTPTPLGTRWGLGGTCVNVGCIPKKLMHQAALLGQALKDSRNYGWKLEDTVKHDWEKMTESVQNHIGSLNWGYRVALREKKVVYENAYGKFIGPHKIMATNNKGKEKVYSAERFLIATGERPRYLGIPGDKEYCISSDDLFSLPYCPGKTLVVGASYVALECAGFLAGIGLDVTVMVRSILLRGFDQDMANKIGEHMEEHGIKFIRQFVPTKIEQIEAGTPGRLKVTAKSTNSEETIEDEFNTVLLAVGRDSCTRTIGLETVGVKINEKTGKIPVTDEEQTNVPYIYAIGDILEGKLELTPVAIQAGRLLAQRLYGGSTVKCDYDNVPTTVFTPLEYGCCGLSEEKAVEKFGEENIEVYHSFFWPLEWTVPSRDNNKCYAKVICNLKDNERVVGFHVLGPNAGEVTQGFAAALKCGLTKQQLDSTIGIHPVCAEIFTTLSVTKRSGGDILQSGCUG
row,SMILES,Potency
1,Cc1ccc(C)c(SCC(=O)NNC(=O)c2ccccc2)c1,"inconclusive: 28.2 µM [inhibitor, single point]"
2,S=C(NCCc1ccccc1)Nc1nccs1,"inconclusive: 20 µM [inhibitor, partial curve, poor fit]"
3,O=C(COC(=O)c1ccc([N+](=O)[O-])s1)Nc1ccccc1,"inconclusive: 15.8 µM [inhibitor, partial curve]"
4,Cc1cc(C)c(OCC(=O)N/N=C/c2ccco2)c(C)c1,"inconclusive: 12.6 µM [inhibitor, partial curve, poor fit]"
5,COC(=O)c1c(S(C)(=O)=O)nc(-c2ccccc2)[nH]c1=O,active: 39.8 µM
6,CCn1c(=O)cc(N2CCN(Cc3ccccc3)CC2)[nH]c1=O,"inconclusive: 20 µM [inhibitor, single point]"
7,CCCCCCC[n+]1ccc(/C=C/c2c(C)[nH]c3ccccc23)cc1,inactive
8,OCC#CCSc1nnc(-c2ccncc2)o1,"inconclusive: 79.4 µM [inhibitor, partial curve]"
9,CCc1cnc2c(c1SCCC(C)C)c(=O)n(C)c(=O)n2C,inactive
10,COc1ccccc1CC(=O)Nc1nc(-c2ccc(F)c(F)c2)cs1,inactive
11,O=C1C(NS(=O)(=O)c2ccc(Cl)cc2)=C(N2CCCCC2)C(=O)c2ccccc21,"inconclusive: 79.4 µM [inhibitor, single point]"
12,Cc1ccccc1NC1c2ccccc2C(=O)N1Cc1ccco1 (stereo unspecified),"inconclusive: 25.1 µM [inhibitor, single point]"
13,Nc1ccc2oc(Cc3ccc(Cl)cc3)nc2c1,active: 50.1 µM
14,Oc1c(C(Nc2ccccn2)c2cccnc2)cc(Cl)c2cccnc12 (stereo unspecified),active: 12.6 µM
15,O=C(O)C(Cc1ccccc1)N1C(=O)/C(=C/c2cccs2)SC1=S (stereo unspecified),inactive
16,O=c1[nH]c2cc3c(cc2cc1CN(CCCO)C(=S)NCc1ccco1)OCO3,"inconclusive: 11.2 µM [inhibitor, partial curve]"
17,C/C(=N\NC(=O)c1ccc([N+](=O)[O-])cc1)c1cc2ccccc2oc1=O,"inconclusive: 50.1 µM [inhibitor, single point]"
18,COc1ccc(N(C)C(=O)c2cc3c(s2)-c2ccccc2OC3)cc1,"inconclusive: 89.1 µM [inhibitor, single point]"
19,CCCNC(=O)CS(=O)Cc1nc(-c2ccccc2C)oc1C (stereo unspecified),"inconclusive: 22.4 µM [inhibitor, partial curve, poor fit]"
20,O=C(NC(=S)NC1CCCC1)c1ccccc1Br,"inconclusive: 15.8 µM [inhibitor, partial curve, poor fit]"
21,Cc1ccc(NS(=O)(=O)N2CCOCC2)c(C)c1,inactive
22,COc1ccc(CNc2nc(C)c([N+](=O)[O-])c(C)c2C#N)cc1,"inconclusive: 89.1 µM [inhibitor, single point]"
23,CN1CC(=O)N(CC(=O)Nc2ccc(N(C)C)cc2)c2ccccc2C1=O,inactive

row,SMILES,Potency
1,CCOc1cc(Br)cc(C(c2c(C(=O)O)[nH]c3ccccc23)c2c(C(=O)O)[nH]c3ccccc23)c1O,"inconclusive: 56.2 µM [inhibitor, partial curve]"
2,COc1cccc(/C=N/NC(=S)NCCc2ccccc2)c1,inactive
3,O=C(Nc1ccc(-c2nc3ccccc3s2)cc1)C1=COCCO1,inactive
4,CCCn1c(SCc2cc(=O)oc3ccc4ccccc4c23)n[nH]c1=O,"inconclusive: 56.2 µM [inhibitor, single point]"
5,Cn1ccnc1Sc1nc2ccccc2nc1NS(=O)(=O)c1ccccc1,"inconclusive: 35.5 µM [inhibitor, single point]"
6,Cc1ccccc1C(=O)NNC(=S)NC(=O)c1ccc(Cl)cc1Cl,"inconclusive: 14.1 µM [inhibitor, partial curve]"
7,COc1cccc(CNC(=O)CCc2nc(-c3ccc(C)cc3)no2)c1,inactive
8,CCOc1ccc(CN2CCNC(=O)C2CC(=O)NCc2cc(C)n(C)n2)cc1 (stereo unspecified),"inconclusive: 89.1 µM [inhibitor, single point]"
9,N#Cc1c(-c2ccccc2)nc(SCC(=O)N(c2ccccc2)c2ccccc2)[nH]c1=O,inactive
10,Cc1cc(NC(=O)CCc2ccc(-c3ccccc3)o2)no1,"inconclusive: 20 µM [inhibitor, partial curve, poor fit]"
11,O=C(CCn1cnc(-c2ccccc2)c1-c1ccccc1)N/N=C/c1ccccc1O,inactive
12,CCCCn1c(N)c(N(CC(C)C)C(=O)c2cc(-c3ccco3)nc3ccccc23)c(=O)[nH]c1=O,"inconclusive: 56.2 µM [inhibitor, partial curve, poor fit]"
13,S=c1[nH]nc(-c2ccncc2)n1/N=C/c1ccccc1,inactive
14,NC(=O)COc1ccc(C(=O)/C=C2/C(=O)Nc3ccccc32)cc1,"inconclusive: 12.6 µM [inhibitor, partial curve, poor fit]"
15,COCC1CCCN(C(=O)c2cc(COc3ccc(C(C)=O)cc3)on2)C1 (stereo unspecified),"inconclusive: 56.2 µM [inhibitor, single point]"
16,COc1ccc(-c2nc(CSCC(=O)NCc3ccco3)c(C)o2)cc1,"inconclusive: 39.8 µM [inhibitor, single point]"
17,Cc1cc(-c2cccs2)c(C#N)c(=S)[nH]1,"inconclusive: 35.5 µM [inhibitor, partial curve, poor fit]"
18,CCCCc1nn2c(N)c(/C=C3\C=Nc4ccccc43)c(=O)nc2s1,"inconclusive: 89.1 µM [inhibitor, single point]"
19,Cc1ccccc1CSc1nnc(-c2ccco2)n1Cc1ccco1,"inconclusive: 20 µM [inhibitor, single point]"
20,Cc1[nH]c(-c2ccco2)nc1C(=O)O,active: 17.8 µM
21,Cc1sc2ncn(CC(=O)NCCCC(=O)Nc3ccc(C(C)C)cc3)c(=O)c2c1C,inactive
22,CCCCC1=CC2=CC(=O)C(C)(OC(=O)CC)C(=O)C2=CN1Cc1ccco1 (stereo unspecified),"inconclusive: 50.1 µM [inhibitor, partial curve, poor fit]"
23,C=CCc1ccc(OCCOc2ccc(/C=N/n3cnnc3)cc2OCC)c(OC)c1,inactive
